Laboratory results published in the BET-seq Pho4 binding data (Le et al. 2018).
Some of the results follow. Values were computed here from the reads of four pooled replicates and scatter widely.

target: T1, Pho4 (S. cerevisiae) (UniProt P07270); assay: relative binding free energy (BET-seq); higher = weaker binding; settings: reference: library average
T1 sequence: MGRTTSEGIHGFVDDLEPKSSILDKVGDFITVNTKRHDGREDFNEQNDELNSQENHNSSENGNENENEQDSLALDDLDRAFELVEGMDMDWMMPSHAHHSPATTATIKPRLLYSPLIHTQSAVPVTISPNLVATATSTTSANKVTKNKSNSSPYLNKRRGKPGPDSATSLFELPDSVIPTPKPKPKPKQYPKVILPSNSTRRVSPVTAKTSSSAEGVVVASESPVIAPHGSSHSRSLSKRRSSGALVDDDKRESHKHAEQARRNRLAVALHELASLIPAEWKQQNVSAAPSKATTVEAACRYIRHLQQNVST

Row | Sequence | relative binding free energy
1 | GCTGGCACGTGTACGG | -0.06 kcal/mol
2 | TATCGCACGTGTTTTG | -0.03 kcal/mol
3 | TTTGTCACGTGTGTGT | 0.17 kcal/mol
4 | CTTGACACGTGTAGTT | 0.04 kcal/mol
5 | AGTACCACGTGAGTTT | 0.29 kcal/mol
6 | GCGAGCACGTGGGGCT | -0.18 kcal/mol
7 | GTGGTCACGTGTCCGT | 0.23 kcal/mol
8 | AAGGTCACGTGATGTC | 0.32 kcal/mol
9 | TTAACCACGTGATGTT | 0.22 kcal/mol
10 | GCTGTCACGTGATGTT | 0.35 kcal/mol
11 | GTAAACACGTGATGGA | 0.35 kcal/mol
12 | TTAGGCACGTGCTGTT | -0.16 kcal/mol
13 | TTAAACACGTGGGTCG | -0.1 kcal/mol
14 | TAATTCACGTGTGTTG | 0.21 kcal/mol
15 | TTATTCACGTGAGGCA | 0.39 kcal/mol
16 | GTGGGCACGTGCCGTA | -0.06 kcal/mol
17 | TGGATCACGTGCGGAT | 0.04 kcal/mol
18 | GTGTGCACGTGAGTAA | 0.08 kcal/mol
19 | GGGTTCACGTGCATAG | 0.26 kcal/mol
20 | ATTGACACGTGATATT | 0.15 kcal/mol
21 | AGCTTCACGTGTGTAT | 0.29 kcal/mol

Row | Sequence | relative binding free energy
22 | AAAATCACGTGTGTAT | 0.27 kcal/mol
23 | CTTTGCACGTGTGTGA | -0.04 kcal/mol
24 | GTTGGCACGTGAAGCT | 0.3 kcal/mol
25 | GTAGCCACGTGTTTTT | 0.06 kcal/mol
26 | TGATTCACGTGAAGGG | 0.38 kcal/mol
27 | GTGGTCACGTGCTTGA | 0.09 kcal/mol
28 | GTACACACGTGATGGG | 0.21 kcal/mol
29 | TTCTTCACGTGGGTTT | 0.2 kcal/mol
30 | GTTAGCACGTGTAAAT | 0.23 kcal/mol
31 | TTTAGCACGTGACAGG | 0.04 kcal/mol
32 | CGATACACGTGTGGAG | 0.14 kcal/mol
33 | TGACTCACGTGAGTGG | 0.24 kcal/mol
34 | ATTCGCACGTGATATT | 0 kcal/mol
35 | TTGATCACGTGTTTCT | 0.19 kcal/mol
36 | ACTGTCACGTGTAGTT | 0.08 kcal/mol
37 | GGAAACACGTGGTGTT | -0.08 kcal/mol
38 | AGTATCACGTGTAGCT | 0.16 kcal/mol
39 | CGTTGCACGTGACTTG | 0.29 kcal/mol
40 | TGTTGCACGTGGACAG | -0.06 kcal/mol
41 | ATTTGCACGTGGAGGG | 0.04 kcal/mol
42 | GTGAACACGTGCGGGG | -0.05 kcal/mol

Row | Sequence | relative binding free energy
43 | TGCAACACGTGTATTG | 0.01 kcal/mol
44 | TTGTTCACGTGCATTA | 0.29 kcal/mol
45 | ACTAGCACGTGTGGGG | -0.1 kcal/mol
46 | TAAGGCACGTGGGAAA | -0.1 kcal/mol
47 | TAGGACACGTGGGATT | -0.18 kcal/mol
48 | CTGGTCACGTGCGTGG | 0.08 kcal/mol
49 | TTTTTCACGTGGCCGT | 0.27 kcal/mol
50 | ATTGGCACGTGTGCGG | -0.16 kcal/mol
51 | GTCAGCACGTGTGGTA | 0 kcal/mol
52 | GTTCTCACGTGTTAAT | 0.23 kcal/mol
53 | GGGAGCACGTGACGGG | 0.07 kcal/mol
54 | CCAGGCACGTGCGGGG | -0.07 kcal/mol
55 | AAGTTCACGTGCTGGG | 0.33 kcal/mol
56 | CGGAGCACGTGCGGTT | -0.06 kcal/mol
57 | AATGGCACGTGGGAAA | -0.02 kcal/mol
58 | GCCTGCACGTGGTTAG | 0.15 kcal/mol
59 | TGGGGCACGTGTCAGC | -0.07 kcal/mol
60 | GTAGACACGTGTGTGT | 0.06 kcal/mol
61 | AGGCTCACGTGAAGGT | 0.36 kcal/mol
62 | GGGAGCACGTGATATG | 0.03 kcal/mol
63 | AAAAACACGTGTTGGG | 0.14 kcal/mol
